Measured values published in ChEMBL document CHEMBL1961873, “Compounds: GSK PKIS; Assays: Nanosyn kinase panel” (2012).
For part of these data: The strong results were mostly taken out for another list; the other results follow. The list shows a part of the results, in another mix than the full data.

biological target: Protein kinase C theta type (Homo sapiens) (UniProt Q04759); details: at 1 µM;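 further: each value is a mean inhibition of PKC-theta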
Chain of UniProt Q04759 (Q04759 whole entry, looked up): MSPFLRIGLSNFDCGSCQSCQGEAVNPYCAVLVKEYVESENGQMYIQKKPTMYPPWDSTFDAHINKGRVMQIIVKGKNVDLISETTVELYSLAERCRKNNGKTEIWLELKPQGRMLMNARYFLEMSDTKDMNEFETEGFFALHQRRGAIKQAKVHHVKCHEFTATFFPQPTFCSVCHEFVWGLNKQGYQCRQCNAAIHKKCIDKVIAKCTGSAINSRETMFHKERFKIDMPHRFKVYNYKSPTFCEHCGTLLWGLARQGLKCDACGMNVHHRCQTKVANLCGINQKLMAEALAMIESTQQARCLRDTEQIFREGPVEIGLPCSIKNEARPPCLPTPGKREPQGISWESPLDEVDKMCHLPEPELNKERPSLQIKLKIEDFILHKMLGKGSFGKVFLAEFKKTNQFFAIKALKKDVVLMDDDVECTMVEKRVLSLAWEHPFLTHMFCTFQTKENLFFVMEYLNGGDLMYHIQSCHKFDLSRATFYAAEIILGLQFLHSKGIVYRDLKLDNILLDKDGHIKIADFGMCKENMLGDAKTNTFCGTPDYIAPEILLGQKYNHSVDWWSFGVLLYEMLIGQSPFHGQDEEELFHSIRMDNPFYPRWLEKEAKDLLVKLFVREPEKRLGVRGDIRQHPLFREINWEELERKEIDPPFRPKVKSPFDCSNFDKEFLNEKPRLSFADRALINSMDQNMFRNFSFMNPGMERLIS

| Compound | inhibition |
| --- | --- |
| O=C1NC(=O)C(c2ccccc2Cl)=C1Nc1cc(Cl)c(O)c(Cl)c1 | 4.4% |
| Fc1ccc(-c2ncn(C3CCNCC3)c2-c2ccnc(Oc3cccc(F)c3)n2)cc1 | 5.32% |
| O=C1NC(=O)C(c2cccc([N+](=O)[O-])c2)=C1Nc1cc(Cl)c(O)c(Cl)c1 | 0.93% |
| Fc1ccc(Oc2nccc(-c3c(-c4ccc(F)cc4)ncn3C3CCNCC3)n2)cc1 | 2.77% |
| CC(C)(C)c1ccc(Oc2nccc(-c3c(-c4ccc(F)cc4)ncn3C3CCNCC3)n2)cc1 | 3.16% |
| Cc1cccc(Oc2nccc(-c3c(-c4ccc(F)cc4)ncn3C3CCNCC3)n2)c1C | 3.35% |
| Fc1ccc(-c2ncn(C3CCNCC3)c2-c2ccnc(Oc3cccc(C(F)(F)F)c3)n2)cc1 | 2.89% |
| Fc1ccc(-c2ncn(C3CCNCC3)c2-c2ccnc(Oc3ccc(Cl)cc3)n2)cc1 | 2.16% |
| CS(=O)(=O)c1ccc(Oc2nccc(-c3c(-c4ccc(F)cc4)ncn3C3CCNCC3)n2)cc1 | 3.24% |
| NC(=O)CCc1ccccc1Oc1nccc(-c2c(-c3ccc(F)cc3)ncn2C2CCNCC2)n1 | -0.78% |
| O=C1NC(=O)C(c2ccccc2)=C1Nc1ccccc1 | 8.9% |
| COc1ccccc1C1=C(Nc2ccccc2)C(=O)NC1=O | 7.77% |
| O=C(O)c1ccc(Oc2nccc(-c3c(-c4ccc(F)cc4)ncn3C3CCNCC3)n2)cc1 | 3.16% |

biological target: Protein kinase C beta type (Homo sapiens) (UniProt P05771); details: at 0.1 µM;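 further: measured against the PKC-beta2 splice variant, with values reported as mean percent inhibition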
Chain of UniProt P05771 (P05771 whole entry, looked up, canonical isoform): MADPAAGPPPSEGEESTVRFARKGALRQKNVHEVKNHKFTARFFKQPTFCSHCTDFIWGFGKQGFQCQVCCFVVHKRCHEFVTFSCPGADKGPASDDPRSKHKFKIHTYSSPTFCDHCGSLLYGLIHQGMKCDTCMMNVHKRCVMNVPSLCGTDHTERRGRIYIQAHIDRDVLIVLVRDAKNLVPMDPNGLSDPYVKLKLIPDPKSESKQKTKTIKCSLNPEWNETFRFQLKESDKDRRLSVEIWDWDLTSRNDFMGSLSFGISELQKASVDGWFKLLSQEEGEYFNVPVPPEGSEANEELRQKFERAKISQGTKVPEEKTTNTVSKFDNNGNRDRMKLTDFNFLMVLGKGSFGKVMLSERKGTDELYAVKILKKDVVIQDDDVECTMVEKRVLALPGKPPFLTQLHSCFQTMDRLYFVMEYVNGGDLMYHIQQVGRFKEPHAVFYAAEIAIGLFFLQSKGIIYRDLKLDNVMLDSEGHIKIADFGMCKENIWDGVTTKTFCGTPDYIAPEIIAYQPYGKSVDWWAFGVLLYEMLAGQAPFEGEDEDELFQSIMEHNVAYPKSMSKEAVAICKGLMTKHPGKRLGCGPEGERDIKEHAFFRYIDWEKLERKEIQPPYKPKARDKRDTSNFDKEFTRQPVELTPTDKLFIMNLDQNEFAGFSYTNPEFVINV

| Compound | inhibition |
| --- | --- |
| O=C1NC(=O)C(c2ccccc2Cl)=C1Nc1cc(Cl)c(O)c(Cl)c1 | 3.48% |
| Fc1ccc(-c2ncn(C3CCNCC3)c2-c2ccnc(Oc3cccc(F)c3)n2)cc1 | 1.84% |
| O=C1NC(=O)C(c2cccc([N+](=O)[O-])c2)=C1Nc1cc(Cl)c(O)c(Cl)c1 | 0.87% |
| Fc1ccc(Oc2nccc(-c3c(-c4ccc(F)cc4)ncn3C3CCNCC3)n2)cc1 | 2% |
| CC(C)(C)c1ccc(Oc2nccc(-c3c(-c4ccc(F)cc4)ncn3C3CCNCC3)n2)cc1 | 0.95% |
| COc1ccccc1Oc1nccc(-c2c(-c3ccc(F)cc3)ncn2C2CCNCC2)n1 | 1.35% |
| Cc1cccc(Oc2nccc(-c3c(-c4ccc(F)cc4)ncn3C3CCNCC3)n2)c1C | 1.25% |
| Fc1ccc(-c2ncn(C3CCNCC3)c2-c2ccnc(Oc3cccc(C(F)(F)F)c3)n2)cc1 | 2.34% |
| Fc1ccc(-c2ncn(C3CCNCC3)c2-c2ccnc(Oc3ccc(Cl)cc3)n2)cc1 | 0.33% |
| CS(=O)(=O)c1ccc(Oc2nccc(-c3c(-c4ccc(F)cc4)ncn3C3CCNCC3)n2)cc1 | 0.91% |
| NC(=O)CCc1ccccc1Oc1nccc(-c2c(-c3ccc(F)cc3)ncn2C2CCNCC2)n1 | 0.09% |
| O=C1NC(=O)C(c2ccccc2)=C1Nc1ccccc1 | 4.21% |
| COc1ccccc1C1=C(Nc2ccccc2)C(=O)NC1=O | 5.42% |
| O=C(O)c1ccc(Oc2nccc(-c3c(-c4ccc(F)cc4)ncn3C3CCNCC3)n2)cc1 | 2.77% |
